Assay results: paper PMC6018503
These are yes or no findings as the source states them, for the method shown.

By UniProt entry, the sequences of proteins in these tests, tags left out.
UniProt Q93ZX1: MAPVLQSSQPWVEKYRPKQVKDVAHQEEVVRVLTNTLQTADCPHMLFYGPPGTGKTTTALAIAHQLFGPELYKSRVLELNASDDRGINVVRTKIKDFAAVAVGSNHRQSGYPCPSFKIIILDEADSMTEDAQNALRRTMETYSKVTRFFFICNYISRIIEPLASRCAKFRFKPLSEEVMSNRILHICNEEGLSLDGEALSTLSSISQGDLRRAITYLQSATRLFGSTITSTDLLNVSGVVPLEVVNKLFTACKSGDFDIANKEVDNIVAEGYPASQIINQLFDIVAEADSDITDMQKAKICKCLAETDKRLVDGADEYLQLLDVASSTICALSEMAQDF

How the values were obtained:
Experiment in all cases: two-hybrid; yeast two-hybrid; full-length ORFs in pGADT7 (AD) and pGBKT7 (BD); co-transformed strains spotted on SD-L-T and SD-L-T-H-A plates; empty AD or BD plasmids as negative controls
[1] = target: T1, AtRFC2 (Arabidopsis thaliana) (UniProt Q9CAM7)
T1 sequence: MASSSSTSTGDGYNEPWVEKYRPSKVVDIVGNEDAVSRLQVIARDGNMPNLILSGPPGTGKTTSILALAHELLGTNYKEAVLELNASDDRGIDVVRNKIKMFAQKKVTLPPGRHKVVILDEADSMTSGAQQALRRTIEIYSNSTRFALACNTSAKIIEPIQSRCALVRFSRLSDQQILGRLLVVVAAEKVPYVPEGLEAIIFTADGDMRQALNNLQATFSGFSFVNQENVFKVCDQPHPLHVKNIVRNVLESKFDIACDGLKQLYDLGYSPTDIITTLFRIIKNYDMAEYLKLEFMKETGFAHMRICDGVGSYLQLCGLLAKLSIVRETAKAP

[2] = target: AtRFC4 (Arabidopsis thaliana) (UniProt Q93ZX1)
[3] = target: T2, AtRFC5 (Arabidopsis thaliana) (UniProt Q8VXX4)
T2 sequence: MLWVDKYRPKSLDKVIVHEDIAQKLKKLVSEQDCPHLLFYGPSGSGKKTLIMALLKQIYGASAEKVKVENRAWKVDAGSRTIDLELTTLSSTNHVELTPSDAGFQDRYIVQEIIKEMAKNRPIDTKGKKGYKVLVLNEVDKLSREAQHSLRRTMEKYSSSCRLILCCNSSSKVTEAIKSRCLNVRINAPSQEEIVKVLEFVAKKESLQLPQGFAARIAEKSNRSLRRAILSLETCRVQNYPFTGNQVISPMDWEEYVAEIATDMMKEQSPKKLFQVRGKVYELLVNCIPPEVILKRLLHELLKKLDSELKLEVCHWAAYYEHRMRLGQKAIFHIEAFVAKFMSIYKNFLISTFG

Measured: binding

B1: AtRFC1 (protein, UniProt Q9C587 1-956)
chain: MSDIRKWFMKAHEKGNGSAPKSTSSKAGPVKNAAETAPIKSEQASEDLETADRRKTSKYFGKDKTKVKDEKEVEAIPAKRKLKTESDDLVKPRPRKVTKVVDDDDDDFDVPISRKTRDTTPSKKLKSGSGRGIASKTVDNDDDDDGEDKETPLKSAGRGRGGRAAPGASTGGRGRGGGRGGFMNFGERKDPPHKGEKEVPEGTPDCLAGLTFVISGTLDSLEREEAEDLIKRHGGRITGSVSKKTTYLLCDEDIGGRKSEKAKELGTKFLTEDGLFDIIRSSKPVKKSLPERSNKGTEKICAPPKTSPQKEETRGKPLAKSSPKKVPPAKGKNKIIETSLPWTEKYRPKVPNEIVGNQSLVTQLHNWLSHWHDQFGGTGSKGKGKKLNDAGSKKAVLLSGTPGIGKTTSAKLVSQMLGFQAVEVNASDSRGKANSNIAKGIGGSNANSVKELVNNEAMAANFDRSKHPKTVLIMDEVDGMSAGDRGGVADLIASIKISKIPIICICNDRYSQKLKSLVNYCLPLNYRKPTKQQMAKRLMHIAKAEGLEINEIALEELAERVNGDIRLAVNQLQYMSLSMSVIKYDDIRQRLLSSAKDEDISPFTAVDKLFGYNGGKLRMDERIDLSMSDPDLVPLLIQENYLNYRPSGKDEAKRMDLLARAAESIADGDIINVQIRRYRQWQLSQSCCVASSILPASLLHGSREVLEQGERNFNRFGGWLGKNSTAGKNRRLMEDLHVHVLASRESSAGRETLRVDYLPLLLSRLTSPLQTLPKDEAVSEVVDFMNSYSISQEDFDTILELGKFKGRENPMEGVPPPVKAALTKKYNEMNKTRMVRVADMVQLPGVKKAPKKRIAAMLEPTVDSLRDEDGEPLADNEEGNGSDAEEDSEEATDGEKLESNLKNLNARGIQVELDLKGAGSSGSRKAAGKGRGRGKAADTSAEKKATGRGSGAKRKR
no binding: [1] | [2] | [3]
